Experimental data reported in the supplement of paper PMC4967469.
A lower IC50 marks a more sensitive line; a fit beyond the top or the lowest dose is shown as a bound at that dose. AUC is the area under the same curve over the 256-fold range up to the top dose, as a fraction: 1 means no effect, lower means more sensitive. For part of these data: Any top dose called inferred was derived from the fitted curves, not read from the paper. For part of these data: Drugs with an entry number were screened twice under separate entries, and the two screens often disagree.

Assays:
Experiment in all cases: Viability of human cancer cell lines after 72 h of drug (GDSC screen)
Docetaxel = compound: CC(=O)O[C@@]12CO[C@@H]1C[C@H](O)[C@@]1(C)C(=O)[C@H](O)C3=C(C)[C@@H](OC(=O)[C@H](O)[C@@H](NC(=O)OC(C)(C)C)c4ccccc4)C[C@@](O)([C@@H](OC(=O)c4ccccc4)[C@H]21)C3(C)C [Docetaxel]; conditions: top dose 0.0125 µM
Protocol: (§1)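 Human cancer cell lines in 384-well plates, medium with 10% serum, drug for 72 h over a 256-fold dose range (nine 2-fold or five 4-fold steps up to the top dose). Adherent lines were fixed and stained with the nucleic acid dye Syto60, suspension lines read with resazurin; signal relative to control wells, capped at 0 and 100%. One two-parameter sigmoid per drug and line, fitted in a mixed model over all curves with the slope shared within a line.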

AMG-706 = compound: CC1(C)CNc2cc(NC(=O)c3cccnc3NCc3ccncc3)ccc21 [AMG-706]; conditions: top dose 2 µM; top dose inferred
Protocol: as §1

Cyclopamine = compound: CC1=C2C[C@H]3[C@@H](CC=C4C[C@@H](O)CC[C@@]43C)[C@@H]2CC[C@]12O[C@@H]1C[C@H](C)CN[C@H]1[C@H]2C [Cyclopamine]; conditions: top dose 16 µM; top dose inferred
Protocol: as §1

JNK Inhibitor VIII = compound: CCOc1nc(NC(=O)Cc2cc(OC)ccc2OC)cc(N)c1C#N [JNK Inhibitor VIII]; conditions: top dose 10 µM; top dose inferred
Protocol: as §1

NSC-207895 = compound: CN1CCN(c2ccc([N+](=O)[O-])c3no[n+]([O-])c23)CC1 [NSC-207895]; conditions: top dose 20 µM; top dose inferred
Protocol: as §1

FTI-277 = compound: COC(=O)[C@H](CCSC)NC(=O)c1ccc(NC[C@@H](N)CS)cc1-c1ccccc1 [FTI-277]; conditions: top dose 1.024 µM; top dose inferred
Protocol: as §1

YM155 = compound: COCC[n+]1c2c(n(Cc3cnccn3)c1C)C(=O)c1ccccc1C2=O [YM155]; conditions: top dose 5.12 µM
Protocol: as §1

OSI-906 = compound: C[C@]1(O)C[C@@H](c2nc(-c3ccc4ccc(-c5ccccc5)nc4c3)c3c(N)nccn32)C1 [OSI-906]; conditions: top dose 2.56 µM; top dose inferred
Protocol: as §1

SB-715992 = compound: Cc1ccc(C(=O)N(CCCN)[C@@H](c2nc3cc(Cl)ccc3c(=O)n2Cc2ccccc2)C(C)C)cc1 [SB-715992]; conditions: top dose 0.128 µM; top dose inferred
Protocol: as §1

JQ1 = compound: Cc1sc2c(c1C)C(c1ccc(Cl)cc1)=N[C@@H](CC(=O)OC(C)(C)C)c1nnc(C)n1-2 [JQ1]
Protocol: as §1

Belinostat = compound: O=C(/C=C/c1cccc(S(=O)(=O)Nc2ccccc2)c1)NO [Belinostat]; conditions: top dose 20 µM; top dose inferred
Protocol: as §1

CGP-60474 = compound: OCCCNc1cc(-c2ccnc(Nc3cccc(Cl)c3)n2)ccn1 [CGP-60474]; conditions: top dose 0.256 µM; top dose inferred
Protocol: as §1

JNJ-26854165 = compound: c1ccc2c(CCNc3ccc(Nc4ccncc4)cc3)c[nH]c2c1 [JNJ-26854165]; conditions: top dose 10 µM
Protocol: as §1

[1] = top dose 1 µM, screen: GDSC drug entry 1218, top dose inferred
[2] = top dose 2.56 µM, screen: GDSC drug entry 163

| Cell Line | AUC (Docetaxel) | IC50 (Docetaxel) [nM] | AUC (AMG-706) | IC50 (AMG-706) [nM] | AUC (Cyclopamine) | IC50 (Cyclopamine) [nM] | AUC (JNK Inhibitor VIII) | IC50 (JNK Inhibitor VIII) [nM] | AUC (NSC-207895) | IC50 (NSC-207895) [nM] | AUC (FTI-277) | IC50 (FTI-277) [nM] | AUC (YM155) | IC50 (YM155) [nM] | AUC (OSI-906) | IC50 (OSI-906) [nM] | AUC (SB-715992) | IC50 (SB-715992) [nM] | AUC (JQ1; [1]) | IC50 (JQ1; [1]) [nM] | AUC (JQ1; [2]) | IC50 (JQ1; [2]) [nM] | AUC (Belinostat) | IC50 (Belinostat) [nM] | AUC (CGP-60474) | IC50 (CGP-60474) [nM] | AUC (JNJ-26854165) | IC50 (JNJ-26854165) [nM] |
| --- | --- | --- | --- | --- | --- | --- | --- | --- | --- | --- | --- | --- | --- | --- | --- | --- | --- | --- | --- | --- | --- | --- | --- | --- | --- | --- | --- | --- |
| EW-11 (Ewing sarcoma, adherent) | 0.607 | 1.67 | 0.973 | > 2000 | 0.977 | > 16000 | 0.972 | > 10000 | 0.96 | > 20000 | 0.971 | > 1020 | 0.054 | < 20 | 0.597 | 319 | 0.853 | > 128 | 0.935 | > 1000 | 0.792 | 1550 | 0.305 | 299 | 0.945 | > 256 | 0.912 | > 10000 |
| EW-18 (Ewing sarcoma, suspension) | 0.796 | 6.29 | 0.984 | > 2000 | 0.981 | > 16000 | 0.986 | > 10000 | 0.876 | > 20000 | 0.952 | > 1020 | 0.041 | < 20 | 0.615 | 339 | 0.587 | 14.1 | 0.961 | > 1000 | 0.949 | > 2560 | 0.16 | 103 | 0.977 | > 256 | 0.942 | > 10000 |
| EW-24 (Ewing sarcoma, semi-adherent) | 0.987 | > 12.5 | 0.987 | > 2000 | 0.992 | > 16000 | 0.981 | > 10000 | 0.989 | > 20000 | 0.991 | > 1020 | 0.13 | 26.8 | 0.993 | > 2560 | 0.991 | > 128 | 0.976 | > 1000 | 0.993 | > 2560 | 0.729 | 5090 | 0.905 | > 256 | 0.975 | > 10000 |
| GI-1 (glioma, adherent) | 0.458 | 0.605 | 0.94 | > 2000 | 0.929 | > 16000 | 0.972 | > 10000 | 0.853 | 14700 | 0.976 | > 1020 | 0.022 | < 20 | 0.93 | > 2560 | 0.662 | 22 | 0.986 | > 1000 | 0.559 | 231 | 0.266 | 279 | 0.69 | 53.2 | 0.899 | > 10000 |
| GOTO (neuroblastoma, adherent) | 0.698 | 3.06 | 0.781 | 949 | 0.981 | > 16000 | 0.808 | 6080 | 0.882 | > 20000 | 0.974 | > 1020 | 0.134 | < 20 | 0.944 | > 2560 | 0.93 | > 128 | 0.946 | > 1000 | 0.754 | 970 | 0.509 | 1330 | 0.749 | 93.1 | 0.809 | 6130 |
| GRANTA-519 (B-cell lymphoma, suspension) | 0.891 | 12 | 0.991 | > 2000 | 0.987 | > 16000 | 0.99 | > 10000 | 0.99 | > 20000 | 0.99 | > 1020 | 0.035 | < 20 | 0.991 | > 2560 | 0.754 | 39.2 | 0.984 | > 1000 | 0.954 | > 2560 | 0.605 | 2340 | 0.851 | 167 | 0.936 | > 10000 |
| HA7-RCC (kidney, adherent) | 0.872 | > 12.5 | 0.958 | > 2000 | 0.978 | > 16000 | 0.963 | > 10000 | 0.983 | > 20000 | 0.94 | > 1020 | 0.984 | > 5120 | 0.824 | 1740 | 0.954 | > 128 | 0.903 | > 1000 | 0.66 | 469 | 0.984 | > 20000 | 0.749 | 90.5 | 0.811 | 6000 |
| HAL-01 (lymphoblastic leukaemia, suspension) | 0.989 | > 12.5 | 0.985 | > 2000 | 0.972 | > 16000 | 0.987 | > 10000 | 0.904 | > 20000 | 0.986 | > 1020 | 0.633 | 711 | 0.966 | > 2560 | 0.806 | 56.2 | 0.677 | 183 | 0.623 | 335 | 0.169 | 146 | 0.71 | 57.8 | 0.821 | 4940 |
| HCC2157 (breast, suspension) | 0.747 | 4.16 | 0.987 | > 2000 | 0.973 | > 16000 | 0.986 | > 10000 | 0.984 | > 20000 | 0.978 | > 1020 | 0.167 | 29 | 0.924 | > 2560 | 0.925 | > 128 | 0.984 | > 1000 | 0.57 | 252 | 0.582 | 2120 | 0.797 | 127 | 0.906 | > 10000 |
